The target in one test is T1, human FGFR2 IIIb (Homo sapiens, UniProt P21802).
T1 construct: residues 22-378-TAG; made in house
Nature of the test: ELISA/FACS screening of panning outputs for specificity and cross-reactivity. It is filed as binding. As to conditions: Uniprot Accession # P21802-3.

Test [1] deals with T2, IIIc isoform of human FGFR2 (Homo sapiens, UniProt P21802).
T2 construct: residues 22-378-TAG; made in house
The test is described as follows: Biacore binding.

Another test relates to Kato-III cells. The test is described as follows: Cell proliferation assay (Cell titer Glo). It is filed as cell-based. As to conditions: antibody tested as MCC-DM1 ADC.
For a further test, the system named is SNU16 cells. Nature of the test: Cell proliferation assay (Cell titer Glo). It is filed as cell-based.
The target in a further test is T3, human FGFR4 (Homo sapiens, UniProt P22455).
T3 construct: domain, residues 22-369-TAG; made in house
The test is described as follows: ELISA/FACS screening of panning outputs for specificity and cross-reactivity. It is filed as binding. Particulars: Uniprot Accession # P22455.

The next test has as its target T4, human FGFR2 IIIc (Homo sapiens, UniProt P21802).
T4 construct: residues 22-378-TAG; made in house
The test is described as above. It is filed as binding. Particulars: Uniprot Accession # P21802-1.

[2] abbreviates: antibody tested as MCC-DM1 ADC, read-out: Cell proliferation IC50, SNU16.

Numbering of substitutions follows the chain as printed. Read-outs that look alike come from different tables or passages of the source.

B1: Antibody 12947 (antibody)
heavy: QVQLVQSGAEVKKPGSSVKVSCKASGGTFSSYAISWVRQAPGQGLEWMGSIQPTAGPARYAQKFQGRVTITADESTSTAYMELSSLRSEDTAVYYCARASLYSVATGSYWKVYHPFDSWGQGTLVTVSSASTKGPSVFPLAPSSKSTSGGTAALGCLVKDYFPEPVTVSWNSGALTSGVHTFPAVLQSSGLYSLSSVVTVPSSSLGTQTYICNVNHKPSNTKVDKRV[human IgG1 Fc cut from this listing]
light: DIQMTQSPSSLSASVGDRVTITCRASQDIYSYLAWYQQKPGKAPKLLIYDASSLQSGVPSRFSGSGSGTDFTLTISSLQPEDFATYYCQQADQYPVTFGQGTKVEIKRTVAAPSVFIFPPSDEQLKSGTASVVCLLNNFYPREAKVQWKVDNALQSGNSQESVTEQDSKDSTYSLSSTLTLSKADYEKHKVYACEVTHQGLSSPVTKSFNRGEC
B1: the “binding to FGFR2 IIIb isoform” value with human FGFR2 IIIb is given as “found to bind”. The “binding to the IIIc isoform of human FGFR2” value in test [1] was “unable to bind”.

B2: Antibody 12422 (antibody)
heavy: QVQLVQSGAEVKKPGSSVKVSCKASGGTFSSYAISWVRQAPGQGLEWMGYISPYMGETHYAQKFQGRVTITADESTSTAYMELSSLRSEDTAVYYCARESYEYFDIWGQGTLVTVSSASTKGPSVFPLAPSSKSTSGGTAALGCLVKDYFPEPVTVSWNSGALTSGVHTFPAVLQSSGLYSLSSVVTVPSSSLGTQTYICNVNHKPSNTKVDKRV[human IgG1 Fc cut from this listing]
light: DIQMTQSPSSLSASVGDRVTITCRASQSISNDLAWYQQKPGKAPKLLIYATSILQSGVPSRFSGSGSGTDFTLTISSLQPEDFATYYCLQYYDYSYTFGQGTKVEIKRTVAAPSVFIFPPSDEQLKSGTASVVCLLNNFYPREAKVQWKVDNALQSGNSQESVTEQDSKDSTYSLSSTLTLSKADYEKHKVYACEVTHQGLSSPVTKSFNRGEC
Turning to B2, the IC50 in the test with Kato-III cells is below 3 nM; with SNU16 cells (setting [2]), below 3 nM; with SNU16 cells (antibody tested as SPDB-DM4 ADC, SNU16 cell line, read-out: Cell proliferation IC50), 0.07 nM. For the same molecule, the “binding to human FGFR4” value in the test with human FGFR4 is “found to bind”. In addition, the “binding to FGFR2 IIIb isoform” value in the test with human FGFR2 IIIb is given as “found to bind”. Moreover, the “binding to FGFR2 IIIc isoform” value with human FGFR2 IIIc is on record as “found to bind”.

B3: Antibody 12439 (antibody)
heavy: QVQLVQSGAEVKKPGASVKVSCKASGYTFTSYDISWVRQAPGQGLEWMGWINPYNGGTNYAQKFQGRVTMTRDTSISTAYMELSRLRSEDTAVYYCAREGSGMIVYPGWSYAFDYWGQGTLVTVSSASTKGPSVFPLAPSSKSTSGGTAALGCLVKDYFPEPVTVSWNSGALTSGVHTFPAVLQSSGLYSLSSVVTVPSSSLGTQTYICNVNHKPSNTKVDKRV[human IgG1 Fc cut from this listing]
light: B1 light with Y30S, S31N, Y32D, A34G, D50A, A91H, D92Y, Q93H, Y94T, V96N
As to B3, the IC50 in the test with Kato-III cells and in the test on SNU16 cells (setting [2]) was below 3 nM each time. In addition, the “binding to human FGFR4” value with human FGFR4 was “found to bind”. For the same molecule, the “binding to FGFR2 IIIb isoform” value with human FGFR2 IIIb was “found to bind”. Further, the “binding to FGFR2 IIIc isoform” value in the test with human FGFR2 IIIc is “found to bind”.

Values taken from patent US20190345250A1, “ANTIBODY DRUG CONJUGATES” (NOVARTIS AG, priority 2013, published 2019).
